Assay results from PubChem BioAssay AID1434 (Sanford-Burnham Center for Chemical Genomics, 2008).
Some of the results follow. These are further read-outs of the screen, such as a control signal, another cell line or another target. No call is given for them. Compounds called inactive in the main read-out are mostly missing here.

Biological target: Runt-related transcription factor 1 (Homo sapiens) + Core-binding factor subunit beta (Homo sapiens) (UniProt Q01196+Q13951)
Assay: disruptors of Runt domain/CBFb-SMMHC interaction – biochemical, FRET, Cerulean-Runt, Venus-CBFb-SMMHC, uHTS, primary screen (AID 1434);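 note: 0% = DMSO wells and 100% = wells with excess untagged CBFb-SMMHC; inhibitors lower the FRET ratio by blocking Runt binding to CBFb-SMMHC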
Conditions: Cerulean-Runt/Venus-CBFb-SMMHC FRET ratio 530/480, 1 h; retest duplicate average; at 20 µM; stronger effect = higher value

UniProt Q01196, sequence (Q01196 whole entry, looked up, the tested form may be a part): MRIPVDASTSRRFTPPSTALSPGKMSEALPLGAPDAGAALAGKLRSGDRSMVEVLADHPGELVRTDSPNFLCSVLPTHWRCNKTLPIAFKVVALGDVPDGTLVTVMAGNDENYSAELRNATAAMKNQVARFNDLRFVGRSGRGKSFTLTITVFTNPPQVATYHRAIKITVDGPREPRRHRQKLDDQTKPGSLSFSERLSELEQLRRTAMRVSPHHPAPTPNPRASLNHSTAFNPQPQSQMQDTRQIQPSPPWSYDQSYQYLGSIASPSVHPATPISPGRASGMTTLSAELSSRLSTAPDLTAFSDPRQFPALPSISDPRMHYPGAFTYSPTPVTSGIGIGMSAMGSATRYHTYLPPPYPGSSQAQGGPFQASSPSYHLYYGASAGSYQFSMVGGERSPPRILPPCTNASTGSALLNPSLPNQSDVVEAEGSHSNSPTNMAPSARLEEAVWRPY
UniProt Q01196, sequence (Q13951 whole entry, looked up, the tested form may be a part): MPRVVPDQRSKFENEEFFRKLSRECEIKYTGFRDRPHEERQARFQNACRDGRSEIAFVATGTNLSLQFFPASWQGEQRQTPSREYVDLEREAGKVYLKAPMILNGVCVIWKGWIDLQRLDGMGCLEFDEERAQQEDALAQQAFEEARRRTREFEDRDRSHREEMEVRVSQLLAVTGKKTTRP

Row | Structure (SMILES) | inhibition [%]
1 | CCOC(=O)c1cc2c(=O)n3ccccc3nc2n(Cc2ccco2)c1=NC(=O)c1ccccc1OC | 125
2 | Nc1c(C(=O)NCc2ccco2)c2nc3ccccc3nc2n1CCc1ccccc1 | 139
3 | Cc1c(Br)c(=O)oc2c(Br)c(O)c(O)cc12 | 71.5
4 | Cn1c(/C=C(\C#N)C(N)=S)ccc1-c1ccc(Br)cc1 | 70.6
5 | CCC(=O)Nc1c(S(=O)(=O)c2ccc(C)cc2)c2nc3ccccc3nc2n1C(C)c1ccccc1 (configuration not stated) | 89.2
6 | Oc1cc2c(cc1O)C1c3ccc(O)c(O)c3OCC1(O)C2 (configuration not stated) | 55.5
7 | COc1cc2cc(C(N)=O)c(N)nc2cc1OC | 147
8 | CCOc1ccc(N=c2oc3cc(O)ccc3cc2C(=O)NCC2CCCO2)cc1 (configuration not stated) | 136
9 | Cc1ccc(-c2cc(-c3ccccc3)c3c(N)c(S(C)(=O)=O)sc3n2)cc1 | 123
10 | CCCOc1c(Br)cc(C2C3=C(CCCC3=O)N(CC)C3=C2C(=O)CCC3)cc1OC | 95.5
11 | O=C(c1ccccc1)c1cc2ccc(O)cc2oc1=O | 146
12 | CCOc1ccc2nc(NCCCNS(=O)(=O)c3ccccc3)c(C#N)cc2c1 | 72.9
13 | Nc1c(C(=O)NCc2ccco2)c2nc3ccccc3nc2n1CCc1ccccc1F | 139
14 | Cc1ccc(C)n1-c1nccc(-c2ccco2)n1 | 70.6
15 | COCCNC(=O)Nc1ccc2nc(-c3cccs3)c(-c3cccs3)nc2c1 | 64.9
16 | N#C/C(=C\c1c(N2CCCCCC2)nc2ccccn2c1=O)C(=O)NC1CCS(=O)(=O)C1 (configuration not stated) | 71.5
17 | CCCCc1cc(=O)oc2c(CN3CCCC3)c(O)c(Cl)cc12 | 179
18 | Cc1ccc2nc3c(cc(C(=O)NCC4CCCO4)n3C)c(=O)n2c1 (configuration not stated) | 75.3
19 | COC(=O)C1=CN(C)C=C(C(=O)OC)C1c1ccccc1Cl | 71.5
20 | Cc1ccccc1OCCn1cc(/C=C(\C#N)C(=O)NCc2ccco2)c2ccccc21 | 71.5
21 | CCOC(=O)/C=C(\C)Sc1cc(O)c2ccccc2c1O | 56.7
22 | O=C(Cc1c2ccccc2nc2ccccc12)c1ccccc1 | 195
23 | O=C(c1nc2n(n1)C(c1ccc(Cl)cc1)C=C(c1ccccc1)N2)N1CCOCC1 (configuration not stated) | 71.5

Row | Structure (SMILES) | inhibition [%]
24 | Cc1cccn2c(=O)c3cc(C(=O)NCC4CCCO4)c(=N)n(Cc4cccnc4)c3nc12 (configuration not stated) | 72.9
25 | Cc1cccn2c(=O)c(/C=C(\C#N)C(=O)NC3CCS(=O)(=O)C3)c(N3CC(C)OC(C)C3)nc12 (configuration not stated) | 79.8
26 | CC(C)OC(=O)CC(=O)CSc1nc2c(cc1C#N)CCCCC2 | 76.8
27 | CC1(C(=O)NNC(=O)c2ccc(=O)oc2)CC1Br (configuration not stated) | 70.2
28 | Cc1ccc(-n2c(C)cc(/C=N/NC(=O)Cn3c4ccccc4c(=O)c4ccccc43)c2C)cc1 | 135
29 | Fc1ccccc1N1CC(c2ccccc2)C(c2cccs2)=N1 (configuration not stated) | 67
30 | Cc1ccc(-c2ccc(CCC(=O)O)n2NC(=O)c2cccs2)cc1 | 66.2
31 | Cc1ccc(Cn2cccc(-c3nc4ccccc4s3)c2=O)cc1 | 107
32 | CCn1c(CSc2nccn2C)nc2cc(C(=O)O)ccc21 | 55.1
33 | CCOC(=O)c1cc2c(=O)n3ccccc3nc2n(C(C)C)c1=NC(=O)c1ccco1 | 70.6
34 | COc1cc(C(=O)NCCCNc2nc3cc(C)cc(C)c3cc2C#N)cc(OC)c1OC | 86.3
35 | CCCc1c2ccccc2nc2ccccc12 | 62.3
36 | N#CC(C(=O)NCc1ccccc1)c1nc2ccccc2nc1N1CCCC1 (configuration not stated) | 95.6
37 | COCCNC(=O)C(C#N)c1nc2ccccc2nc1N1CCCCCC1 (configuration not stated) | 102
38 | CCc1cc[n+](-c2nc3ccccc3nc2[N-]S(=O)(=O)c2ccc(Br)s2)cc1 | 66.2
39 | COc1ccc(C2C3=C(CC(C)(C)CC3=O)Nc3c2c(=O)[nH]c2nc(C)nn32)cc1 (configuration not stated) | 159
40 | O=C(Cc1nc2ccccc2s1)c1ccc(O)cc1O | 125
41 | O=C(Cc1ccccc1)N/N=C/c1cc(Br)cc(Cl)c1O | 70.6
42 | Cc1ccc(S(=O)(=O)NC(C(=O)Oc2ccc3c(C)c(Cl)c(=O)oc3c2)c2ccccc2)cc1 (configuration not stated) | 71.5
43 | Cc1ncc(CO)c(/C=N/NC(=O)c2ccc(Br)cc2)c1O | 71.5
44 | COc1ccc(-c2cc(-c3ccco3)[nH]c(=O)c2C#N)cc1 | 105
45 | O=C(NC1CCCCCC1)c1ccc[nH]c1=S | 60.5
46 | COc1ccc(C(=O)Nc2sc3c(c2C#N)CCN(C(C)=O)C3)cc1 | 91.7

Row | Structure (SMILES) | inhibition [%]
47 | c1cc2c(cc1-c1csc(NNC3=NCCCCC3)n1)OCCO2 | 56.9
48 | COc1ccc(-c2c(C#N)c(N)nc3c2CCC3)cc1 | 101
49 | CC(=O)c1sc(Nc2nc3ccc(F)cc3s2)nc1C | 75.9
50 | CC(=O)Oc1cc2oc(=O)c3c(c2cc1Cl)CCC3 | 142
51 | Cc1cc(=O)oc2cc(OC(=O)c3nn(C(C)C)c(=O)c4ccccc34)ccc12 | 85.5
52 | CC(C)S(=O)(=O)c1nsc2nc(=O)c(/C=C3\C=Nc4ccccc43)c(N)n12 | 107
53 | N=c1c(C(=O)NCc2ccc3c(c2)OCO3)cc2c(=O)n3ccccc3nc2n1Cc1cccnc1 | 182
54 | O=C(O)CCc1ccc(-c2cccs2)n1CC1CCCO1 (configuration not stated) | 98.3
55 | Cc1cc2c(c(=O)n1CCCn1ccnc1)C(c1ccco1)C(C#N)=C(N)O2 (configuration not stated) | 118
56 | Cc1nc2ccc(S(=O)(=O)Nc3ccc(-c4nc5cccnc5s4)cc3)cc2s1 | 136
57 | N#Cc1cc2c(=O)n3ccccc3nc2n(CCCN2CCOCC2)c1=O | 72.9
58 | Cc1cccc2cc(C#N)c(NCCNC(=O)NC3CCCCC3)nc12 | 102
59 | CC(C)OC(=O)CSc1nnc2n1C(C)(C)Cc1ccccc1-2 | 187
60 | Cc1cccc(-n2c(=O)c(C#N)cc3c(=O)n4ccccc4nc32)c1 | 72.9
61 | N#Cc1c(-c2cccs2)cc(-c2cccs2)[nH]c1=O | 155
62 | CN(C)Cc1c(O)c(Cl)cc2c3c(c(=O)oc12)CCCC3 | 85.7
63 | Cc1ccc2cc(C#N)c(N3CCCN(C(=O)C4CCCO4)CC3)nc2c1C (configuration not stated) | 75.3
64 | O=C(Cn1c2ccccc2c(=O)c2ccccc21)N/N=C/c1ccc(N2CCCC2)c([N+](=O)[O-])c1 | 125
65 | O=c1[nH]c2cc3c(cc2cc1CN(Cc1nnnn1CC1CCCO1)C1CCCCC1)OCO3 (configuration not stated) | 72
66 | N=c1c(S(=O)(=O)c2ccc(Cl)cc2)cc2c(=O)n3ccccc3nc2n1CCN1CCOCC1 | 81.4
67 | COc1cc(/C=C(/C#N)c2nc3ccccc3[nH]2)ccc1OCc1ccc(C(=O)O)o1 | 54.8
